{"source": "PubChem BioAssay AID504832", "about": "(National Center for Advancing Translational Sciences (NCATS), 2011)", "note": "The campaign covered roughly 310,000 compounds. About 18,000 (5.8%) were called active. The shares of active, inactive and inconclusive entries below differ from those in the screen. Calls come from the whole dose curve; as a rule, active = well fitted inhibition curve with a large enough effect; inconclusive = small, poorly fitted or top-dose-only effect, or another doubt; inactive = no such curve, though single readings can be large or run the other way. No potency is given beside an inconclusive call; the fits are too rough. % is set by controls: 0 for no effect and ±100 for the full control effect; potency is the fitted concentration of half-maximal effect; tags give direction and shape of the fitted curve."}
{"assay": "Primary qHTS for delayed death inhibitors of the malarial parasite plastid, 48 hour incubation", "settings": "P. falciparum luciferase growth in erythrocytes; series mostly up to 28.7 µM; activity change, negative = inhibition: at the top concentration", "summary_of_the_method": "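Cell-based growth assay: transgenic P. falciparum expressing firefly luciferase, cultured in red cells within RPMI 1640 containing 0.5% w/v Albumax, 24 mM bicarbonate and gentamycin. A drop in luciferase activity indicates inhibition.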"}
{"compound": "CN(C1CCCCC1)S(=O)(=O)c1ccc(NC(=O)CCC(=O)O)cc1", "activity change, negative = inhibition": "inactive: -2.96%"}
{"compound": "CCS(=O)(=O)N1CCN(C(=O)c2cccs2)CC1", "activity change, negative = inhibition": "inactive: 9.32%"}
{"compound": "Cc1ccc(-n2nc3c(=O)n(CCCC(=O)NCc4ccc(C)o4)nc(C)c3c2C)cc1", "Potency": "active: 10.4 µM"}
{"compound": "CC(=O)Nc1sc(N/N=C/c2ccccc2)nc1-c1ccc(C)cc1", "Potency": "active: 7.38 µM"}
{"compound": "CC(C)Cn1c(-c2ccc(Br)cc2)c[nH]c1=S", "activity change, negative = inhibition": "inactive: -20.2%"}
{"compound": "O=C(NC(Cc1ccccc1)C(=O)N1CCN(c2ccccc2O)CC1)c1ccccc1", "note": "(stereo unspecified)", "Potency": "active: 8.28 µM"}
{"compound": "CCOC(=O)C1=C(COC(=O)COc2cc(C)ccc2C)NC(=O)NC1C", "note": "(stereo unspecified)", "Potency": "inconclusive [inhibitor, partial curve, poor fit]"}
{"compound": "O=C(CCN1CCN(CCO)CC1)Nc1ccc(OCc2ccccc2)cc1", "Potency": "inconclusive [inhibitor, single point]"}
{"compound": "CCOC(=O)c1nnn(-c2nonc2-n2cccc2)c1CCl", "Potency": "inconclusive [inhibitor, single point]"}
{"compound": "CCC(C)c1ccccc1N1CC(C(=O)Nc2ccc(S(=O)(=O)N3CCOCC3)cc2)CC1=O", "note": "(stereo unspecified)", "Potency": "inconclusive [inhibitor, partial curve, poor fit]"}
{"compound": "Cc1cnc(NC(=O)CN2CCCCC2)s1", "activity change, negative = inhibition": "inactive: -6.08%"}
{"compound": "O=C(Nc1ccc(F)cc1)c1ccc(-n2cncn2)c([N+](=O)[O-])c1", "Potency": "inconclusive [inhibitor, single point]"}
{"compound": "COc1ccc(C)cc1NC(=O)CN1CCN(C/C=C/c2ccccc2)CC1", "Potency": "inconclusive [inhibitor, single point]"}
{"compound": "CCCCCn1c(C(Cc2ccccc2)NC(=O)COC)nc2ccccc21", "note": "(stereo unspecified)", "Potency": "inconclusive [inhibitor, partial curve]"}
{"compound": "CCOc1cc(C(=O)OCC(=O)c2c(C)[nH]c3ccccc23)ccc1OCC(=O)N1CCOCC1", "Potency": "inconclusive [inhibitor, single point]"}
{"compound": "C/C=C/CSc1nc2c(c(=O)[nH]c(=O)n2C)n1Cc1ccc(C)cc1", "Potency": "active: 13.1 µM"}
{"compound": "Cc1ccc2sc(N3CCN(CCNC(=O)c4ccco4)CC3)nc2c1C", "Potency": "inconclusive [inhibitor, partial curve, poor fit]"}
{"compound": "O=C(CCc1c[nH]c2ccccc12)N1CCN(S(=O)(=O)c2ccc(F)cc2)CC1", "Potency": "inconclusive [inhibitor, single point]"}
{"compound": "CC(/C=C/c1ccc2c(c1)OCO2)=N/NC(=O)c1ccncc1", "activity change, negative = inhibition": "inactive: -10.9%"}
{"compound": "COc1ccc(NC(=O)CSc2n[nH]c(C)c2[N+](=O)[O-])cc1", "activity change, negative = inhibition": "inactive: 68.4%"}
{"compound": "C/C(=N/NC(=O)C1CC1(c1ccccc1)c1ccccc1)c1cccs1", "note": "(stereo unspecified)", "Potency": "inconclusive [inhibitor, single point]"}
{"compound": "Cc1noc(/C=C/c2ccco2)c1S(=O)(=O)N1CCC(C(=O)NCc2ccco2)CC1", "Potency": "active: 13.1 µM"}
{"compound": "O=C(Nc1c(S(=O)(=O)c2ccc(Cl)cc2)csc1Br)c1ccccc1Cl", "Potency": "inconclusive [inhibitor, partial curve, poor fit]"}
{"compound": "O=C(NN1C(=O)C2C(C1=O)C1C=CC2C12CC2)c1cccnc1", "note": "(stereo unspecified)", "activity change, negative = inhibition": "inactive: 23.5%"}
{"compound": "CCN(CC)CCN(C(=O)c1ccc(C(C)=O)cc1)c1nc2ccc(Cl)cc2s1", "Potency": "inconclusive [inhibitor, single point]"}
{"compound": "O=C(O)CC(CNS(=O)(=O)c1ccccc1)c1ccccc1", "note": "(stereo unspecified)", "activity change, negative = inhibition": "inactive: 19%"}
{"compound": "CCOc1ccc(NC(N)=O)cc1", "activity change, negative = inhibition": "inactive: 4.11%"}
{"compound": "COc1ccccc1C(=O)Nc1ccnn1C1CCN(Cc2cn(C)c3ccccc23)CC1", "Potency": "inconclusive [inhibitor, partial curve]"}
{"compound": "CCCCOC(=O)c1ccc(NC(=O)COC(=O)c2ccc3ncsc3c2)cc1", "activity change, negative = inhibition": "inactive: -22%"}
{"compound": "CC(C)C(NC(=O)c1ccccc1NC(=O)c1ccco1)C(=O)NNC(=O)c1ccncc1", "note": "(stereo unspecified)", "Potency": "inconclusive [inhibitor, partial curve, poor fit]"}
{"compound": "Cc1ccc(NC(=O)c2ccc3c(c2)N(CC(=O)N2CCCCC2)C(=O)C(C)(C)O3)cc1", "Potency": "inconclusive [inhibitor, single point]"}
{"compound": "C/C=C(/C)C(=O)OC1c2c(ccc3ccc(=O)oc23)OC(C)(C)C1OC(C)=O", "note": "(stereo unspecified)", "Potency": "active: 8.28 µM"}
{"compound": "COc1ccc(-c2nn3c(=O)c(C)nnc3s2)cc1", "Potency": "inconclusive [inhibitor, single point]"}
{"compound": "CCn1c(COc2ccc(=O)n(-c3ccccc3)n2)n[nH]c1=S", "Potency": "inconclusive [inhibitor, partial curve, poor fit]"}
{"compound": "COc1cc(Cl)c(C)cc1NC(=O)CSc1nnc(-c2ccccn2)n1Cc1ccco1", "Potency": "inconclusive [inhibitor, single point]"}
{"compound": "COc1cccc(CN(C)C(=O)Cc2ccc(OC)c(S(=O)(=O)N3CCOCC3)c2)c1", "Potency": "inconclusive [inhibitor, single point]"}
{"compound": "COc1ccc(NC(=O)c2nc(C)c(C3(C)CC(c4cccnc4)=NO3)s2)cc1", "note": "(stereo unspecified)", "Potency": "inconclusive [inhibitor, single point]"}
{"compound": "O=[N+]([O-])c1cc2oc3c(c2c(C=NCc2ccccc2)c1O)CCCC3", "activity change, negative = inhibition": "inactive: 1.11%"}
{"compound": "CCCCNC(=O)C1CCCN1C(=O)Nc1ccccc1", "note": "(stereo unspecified)", "activity change, negative = inhibition": "inactive: 11.5%"}
{"compound": "COCCN1Cc2cccc(C(=O)Nc3ccc(S(=O)(=O)N4CCCCCC4)cc3)c2C1=O", "Potency": "inconclusive [inhibitor, full curve, poor fit]"}
{"compound": "O=C(NCCc1nc2ccccc2[nH]1)c1ccc(Cl)c([N+](=O)[O-])c1", "Potency": "inconclusive [inhibitor, single point]"}
{"compound": "O=C(Nc1nnc(-c2ccc(Br)cc2)o1)c1ccco1", "Potency": "inconclusive [inhibitor, single point]"}
{"compound": "Cn1c(N)c(C(=O)COC(=O)c2ccc(OC(F)F)cc2)c(=O)n(C)c1=O", "Potency": "inconclusive [inhibitor, single point]"}
{"compound": "CCN1CCN(c2cc(C(C)C)nc3c(-c4ccccc4)c(C)nn23)CC1", "Potency": "inconclusive [inhibitor, single point]"}
{"compound": "Cc1c(C(=O)N2CCCCC2)c(S(=O)(=O)N2CCN(c3ccc(Cl)cc3)CC2)c(C)n1C", "Potency": "inconclusive [inhibitor, single point]"}
{"compound": "Cc1cc(Br)ccc1NC(=O)c1ccco1", "Potency": "inconclusive [inhibitor, partial curve, poor fit]"}
{"compound": "CCOC(=O)C(c1ccccc1)C(Nc1ccc(F)cc1)c1ccccn1", "note": "(stereo unspecified)", "Potency": "inconclusive [inhibitor, single point]"}
{"compound": "COc1ccccc1Cn1c(/C=C/c2ccccc2)nc2ccccc21", "Potency": "inconclusive [inhibitor, single point]"}
{"compound": "CN(C)S(=O)(=O)Nc1ccccc1F", "activity change, negative = inhibition": "inactive: 24.4%"}
{"compound": "O=C(CCC1CCCN(Cc2ccc(O)c(Cl)c2)C1)NCc1ccccc1F", "note": "(stereo unspecified)", "Potency": "inconclusive [inhibitor, partial curve, poor fit]"}
{"compound": "COc1cccc(N2CC(C(=O)N3CCC4(CC3)CC(=O)c3ccccc3O4)CC2=O)c1", "note": "(stereo unspecified)", "Potency": "inconclusive [inhibitor, single point]"}
{"compound": "O=C(CCCSc1nnc(-c2cccs2)n1CC1CCCO1)c1ccccc1", "note": "(stereo unspecified)", "Potency": "inconclusive [inhibitor, partial curve]"}
{"compound": "CCOC(=O)NS(=O)(=O)c1ccc(CCNC(=O)c2cc(C)on2)cc1", "activity change, negative = inhibition": "inactive: -7.11%"}
{"compound": "CCOc1ccc(/C=N/NC(N)=S)cc1", "activity change, negative = inhibition": "inactive: 53.1%"}
{"compound": "CC(=O)c1ccccc1NS(=O)(=O)c1ccc2c(c1)CC(=O)N2", "Potency": "inconclusive [inhibitor, single point]"}
{"compound": "Cc1ccc(C)c(S(=O)(=O)N2CCN(C(=O)[C@@H](NC(=O)c3ccc(F)cc3)C(C)C)CC2)c1", "Potency": "active: 9.28 µM"}
{"compound": "Clc1ccc(N=C2SCCS2)cc1", "activity change, negative = inhibition": "inactive: 71.3%"}
{"compound": "COC(=O)C1=C(c2ccc(-c3ccccc3)c(F)c2)C[C@@H]2CC[C@H]1N2C(=O)N1CCC(C)CC1", "Potency": "inconclusive [inhibitor, single point]"}
{"compound": "O=C(NCCc1ccccc1)C(=O)NCC1CCNCC1", "activity change, negative = inhibition": "inactive: 9.83%"}
{"compound": "COc1ccc2c(c1OC)C(=O)OC2Nc1ccc(S(=O)(=O)N=C(N)N)cc1", "note": "(stereo unspecified)", "activity change, negative = inhibition": "inactive: 4.12%"}
{"compound": "O=C(N/N=C/c1cc([N+](=O)[O-])ccc1O)C12CC3CC(CC(C3)C1)C2", "Potency": "active: 8.28 µM"}
{"compound": "CCN(CC)S(=O)(=O)c1ccc(Cl)c(NC(=O)COC(=O)C2CCCCC2)c1", "Potency": "inconclusive [inhibitor, single point]"}
{"compound": "O=C(NCC1CCCO1)c1ccc2ccccc2n1", "note": "(stereo unspecified)", "activity change, negative = inhibition": "inactive: 59.7%"}
{"compound": "CCN(CC)C(=O)N1c2ccccc2CC(N(CC)CC)c2ccccc21", "note": "(stereo unspecified)", "Potency": "inconclusive [inhibitor, partial curve]"}
{"compound": "CCOC(=O)CN(C)Cc1cn(C)nc1-c1ccc(Oc2ccccc2)cc1", "activity change, negative = inhibition": "inactive: 17.6%"}
{"compound": "O=C(c1cc(-c2cccs2)nc2ccccc12)N1CCN(c2ccccc2)CC1", "Potency": "inconclusive [inhibitor, partial curve]"}
{"compound": "C=CCn1c(N2CCOCC2)nc2c1c(=O)[nH]c(=O)n2C", "Potency": "inconclusive [inhibitor, full curve, poor fit]"}
{"compound": "Cn1c(CCNS(=O)(=O)c2ccccc2)nnc1SCc1cccnc1", "activity change, negative = inhibition": "inactive: 12.9%"}
{"compound": "O=c1c2c3c(sc2nc2n1CCCCC2)CCCC3", "activity change, negative = inhibition": "inactive: 120%"}
{"compound": "COc1ccc(CNc2cc(C)nc3ccc(OC)cc23)cc1", "Potency": "inconclusive [inhibitor, partial curve, poor fit]"}
{"compound": "O=[N+]([O-])c1cc(-c2ccc(/C=N/c3nc4ccccn4c3-c3ccco3)o2)ccc1Cl", "Potency": "inconclusive [inhibitor, single point]"}
